Laboratory results published in PMC4336329 (PLoS ONE, 2015).
Out of some 310,000 compounds screened, about 14,000 (4.5%) showed an effect of 50% or more. Effects have a minus sign here. This is one part of the list.

molecular target: human ether-à-go-go-related gene (hERG) potassium channel (human, UniProt Q12809); test: primary screen, population patch clamp on CHO cells stably expressing hERG
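Also: peak tail current of the secondary pulse compared with the same well before compound.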

Sequence of human ether-à-go-go-related gene (hERG) potassium channel (Q12809 whole entry, looked up): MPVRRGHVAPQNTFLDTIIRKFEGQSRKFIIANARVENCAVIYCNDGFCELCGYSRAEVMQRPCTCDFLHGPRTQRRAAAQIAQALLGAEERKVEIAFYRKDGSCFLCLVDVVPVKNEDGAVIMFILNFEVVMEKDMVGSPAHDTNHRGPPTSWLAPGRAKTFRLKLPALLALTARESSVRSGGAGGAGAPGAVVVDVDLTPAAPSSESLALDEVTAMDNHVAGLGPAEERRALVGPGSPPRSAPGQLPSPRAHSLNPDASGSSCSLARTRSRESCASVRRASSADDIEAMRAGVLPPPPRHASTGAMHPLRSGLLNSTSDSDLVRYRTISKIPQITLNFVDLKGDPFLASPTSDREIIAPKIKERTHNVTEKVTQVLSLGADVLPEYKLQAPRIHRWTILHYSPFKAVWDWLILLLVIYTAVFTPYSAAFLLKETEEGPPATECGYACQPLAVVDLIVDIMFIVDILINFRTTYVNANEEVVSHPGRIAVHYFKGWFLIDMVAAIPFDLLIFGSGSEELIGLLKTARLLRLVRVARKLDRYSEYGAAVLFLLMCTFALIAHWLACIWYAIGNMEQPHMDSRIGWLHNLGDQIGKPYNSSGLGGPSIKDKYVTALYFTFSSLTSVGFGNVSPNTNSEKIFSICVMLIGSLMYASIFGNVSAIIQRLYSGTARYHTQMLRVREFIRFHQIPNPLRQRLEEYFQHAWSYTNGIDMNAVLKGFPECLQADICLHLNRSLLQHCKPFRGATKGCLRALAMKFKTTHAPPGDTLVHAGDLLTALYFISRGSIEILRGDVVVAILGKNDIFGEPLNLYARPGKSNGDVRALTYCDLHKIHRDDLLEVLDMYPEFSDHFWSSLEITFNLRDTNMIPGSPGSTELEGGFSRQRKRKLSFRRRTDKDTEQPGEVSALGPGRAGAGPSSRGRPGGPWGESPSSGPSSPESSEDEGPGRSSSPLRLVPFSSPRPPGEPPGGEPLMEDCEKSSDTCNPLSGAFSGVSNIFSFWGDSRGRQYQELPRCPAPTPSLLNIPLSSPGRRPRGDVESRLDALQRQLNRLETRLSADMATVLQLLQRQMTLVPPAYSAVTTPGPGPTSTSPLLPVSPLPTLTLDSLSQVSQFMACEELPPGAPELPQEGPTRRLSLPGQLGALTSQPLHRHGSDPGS

Structure (SMILES) | hERG current change (%, negative = inhibition) at 10uM [%]
CN1C(=O)NC(NC(=O)C2CCCCC2)(C(F)(F)F)C1=O (stereo not drawn) | 5.43
O=C(COC(=O)C1C2CC3OC(=O)C1C3C2)Nc1ccc(Br)cc1 (stereo not drawn) | -10.1
CCOC(=O)N1CCN(Cc2nc(N)nc(Nc3ccc(Cl)cc3)n2)CC1 | -72.4
O=S(=O)(c1cccc(F)c1)N1CCC(CO)(Cc2cccc(F)c2)CC1 | -18.2
Cn1cnnc1SCc1ccccc1 | -1.83
O=C(N/N=C/c1cccs1)c1ccc(NC(=O)c2ccccc2Cl)cc1 | 12.4
O=C(Nc1ccc(C(F)(F)F)cc1)c1ccccc1-n1cnnn1 | -39.4
O=C(Nc1ccc(Cl)cc1)Nc1ccc(S(=O)(=O)Nc2ncccn2)cc1 | 8.68
Oc1cc2c(cc1O)C1c3ccc(O)c(O)c3OCC1(O)C2 (stereo not drawn) | 18.1
N#Cc1c2ccccc2nc2ccccc12 | 2.22
O=C(Nc1ccc2c(c1)OCO2)c1cc(C2CC2)on1 | 17.5
CN(C)/C=N/NC(=O)c1ccccc1 | 19.2
C(=C\c1ccc2ccccc2n1)/c1ccccc1 | -6.05
CCOC(=O)C1CCN(C(=O)CC(C)c2ccccc2)CC1 (stereo not drawn) | 5.61
COc1cccc(-n2nc3c(=O)n(Cc4ccccc4Cl)nc(C)c3c2C)c1 | 9.45
O=C(CSc1ccsc1[N+](=O)[O-])N1CCCCC1 | -4.61
CCN1CCN(C(=S)NC(=O)c2cccs2)CC1 | -1.01
C=CCOc1ccccc1CN1CCN(CCc2ccccc2)C(CCO)C1 (stereo not drawn) | -59.4
Cc1ccc(C(=O)Nc2cccnc2)cc1S(=O)(=O)N1CCCCCC1 | -33.7
Cc1ccc(C)c(OCc2nc(-c3cccnc3)no2)c1 | 8.11
CCOc1ccccc1N1CCN(C(=O)CCNS(=O)(=O)c2ccccc2F)CC1 | 1.84
Cc1ccnc(SCC(=O)Nc2sccc2C#N)n1 | 11.7
COc1ccc2c3n([n+]([O-])c2c1)CCN=C3c1ccc(Cl)cc1 | -6.11
COc1cccc(C(=O)NCC(=O)N/N=C/c2cn[nH]c2-c2ccccc2)c1 | -4.6

Structure (SMILES) | hERG current change (%, negative = inhibition) at 10uM [%]
CN1CC(C#N)C2(O)c3ccccc3CCC2C1 (stereo not drawn) | 9.6
O=C(Nc1cccnc1)c1ccc(COc2ccccc2Br)cc1 | 7.99
COc1ccc(Cc2nnc(NC(=O)Nc3ccc(F)cc3)s2)cc1OC | 6.9
Cc1ccc(Cl)c(OC(=O)Cn2cnc3c2c(=O)n(C)c(=O)n3C)c1 | 19.6
CC(C)OCCCNC(=O)c1cccc2c1C(=O)c1ccc(Cl)cc1S2(=O)=O | -6.26
COc1ccc(Cl)cc1NC(=O)C1CCN(C(=O)C2CC(=O)N(c3ccc(C)cc3)C2)CC1 (stereo not drawn) | -60.4
CC(C)NC(=O)CS(=O)(=O)c1ccccc1 | -5.05
CCc1c(C)nc(SCC(=O)N2CC(C)OC(C)C2)[nH]c1=O (stereo not drawn) | -11.5
CC(=O)Nc1ccc2sc(NC(=O)CN3CCOCC3)nc2c1 | 18.7
Cc1cccc(CSc2ncnc3nc[nH]c23)c1 | -16.6
CNC(=S)N1CCN(c2ccc(Cl)c(Cl)c2)CC1 | -6.17
Cc1cccc(CSc2ccc(-c3cccs3)nn2)c1 | -12.3
Cc1cc(OCC(O)CN(C)C(=O)C(C)Oc2ccccc2)ccc1Cl (stereo not drawn) | -9.56
CCNc1nc(N)nc(Oc2ccc(C(=O)OC)cc2)n1 | 9.43
Cc1cc2ccccn2c1C(=O)c1nc(NCc2ccco2)ncc1Cl | 15.6
CCCn1c(COc2ccccc2)nc2ccccc21 | -12.5
CCc1ccccc1NC(=O)Nc1ccc(F)cc1 | 7.35
c1ccc(-c2cncn2-c2ccccc2)cc1 | -22.2
Cc1ccc(CS(=O)Cc2ccc(C(=O)N3CCN(c4ccccn4)CC3)o2)cc1 (stereo not drawn) | -10.1
O=C(Nc1nc2c(s1)CCCC2)c1cccs1 | -0.0237
O=S(=O)(Nc1ccc(Br)cn1)c1cccs1 | 29.4
O=C(NC(=S)NCC1CCCO1)c1ccc([N+](=O)[O-])cc1 (stereo not drawn) | -16.6
C[C@]12CC[C@H](O)CC1=CC[C@@H]1[C@@H]2CC[C@@]2(C)[C@H]1CC[C@]2(C)O | -2.51
c1ccc(CCn2nnnc2C(c2cccnc2)N2CCN(c3nc4ccccc4s3)CC2)cc1 (stereo not drawn) | -58.7

Structure (SMILES) | hERG current change (%, negative = inhibition) at 10uM [%]
COc1ccc(NC(=O)Nc2ccccc2C(=O)N2CCCC2)cc1 | 2.56
Cc1nc2c(c(C)nn2-c2ccccc2)c(C)c1C | 6.19
O=C1c2ccsc2SCCN1Cc1cccc(F)c1 | -6.8
O=c1[nH]c(CSc2ccccn2)nc2c1cnn2-c1ccccc1 | -6.32
CC(=O)N1CCN(c2ccc(NCc3cccc4ccccc34)cc2)CC1 | -6.26
CC(=O)Nc1cccc(N(C(=O)C2COc3ccccc3O2)C(C(=O)NC2CCCCC2)c2cn(C)nc2C)c1 (stereo not drawn) | 24.1
CCOC(=O)C(Cc1ccccc1)NC(=O)CCc1c(C)nc2nc(C)nn2c1C (stereo not drawn) | 2.42
COc1cc(/C=N/NC(=S)Nc2cccnc2)cc(OC)c1OC | 4.89
CNC(=S)NNC(=O)c1sccc1OCc1ccc(C)cc1 | 0.12
COCCN(CCOC)C(=O)Nc1ccc(Cl)cc1 | -4.35
Cc1cccc(C)c1NC(=O)CS(=O)CC(=O)NCCCc1ccccc1 (stereo not drawn) | 10.4
COc1cccc(-c2nnc(-c3ccc(C)o3)o2)c1 | -32.5
CCCc1nc2oc3c(NCCN4CCOCC4)ncnc3c2c2c1CCCC2 | -1.37
CCOC(=O)C(C)n1cnc2c(oc3ccccc32)c1=O (stereo not drawn) | 11.1
O=C(NC1CC1)C1CCN(C2CCN(C(=O)c3ccc4cccc(F)c4n3)CC2)CC1 | 5.42
NS(=O)(=O)c1ccc(-c2ccc(/C=C3\NC(=S)NC3=O)o2)cc1 | 5.83
COc1ccc(N(CC(=O)NCCSCc2cccc(Cl)c2)S(C)(=O)=O)cc1Cl | -5.2
COc1ccc(-c2nc(CN3CCN(c4cc(C)nc(C)c4)CC3)c(C)o2)c2ccccc12 | -73.6
O=C1c2ccccc2C(=O)C1c1ccc2ccccc2n1 | -13.4
Fc1cccc(-c2csc(-c3ccno3)n2)c1 | 3.8
CCOCc1nnc(NC(=O)c2cc(OC)cc(OC)c2)s1 | 34.5
CCCn1nnc(NC(=O)COc2cc(C)ccc2C(C)C)n1 | -23.2
CCOc1cc(S(=O)(=O)NCc2ccccn2)c(C)cc1C | -15.4
CC(=O)c1sc(NC(=O)c2ccc(Cl)cc2)nc1C | 9.38

Structure (SMILES) | hERG current change (%, negative = inhibition) at 10uM [%]
CNC(=S)N1N=C(c2ccccc2)CC1c1ccc(Br)cc1 (stereo not drawn) | -18.9
O=C(CSc1ccc2ccccc2c1)NCCc1ccc(O)c(O)c1 | -0.593
CCCN1CCN(c2nc3c([nH]2)c(=N)ncn3CC(O)CO)CC1 (stereo not drawn) | 21.6
O=C(c1c(F)cccc1F)N1CCN(S(=O)(=O)c2ccc3c(c2)OCCO3)CC1 | -26.8
O=C(Nc1cc(C(F)(F)F)ccc1Cl)C(Sc1n[nH]c(=O)[nH]c1=O)c1ccccc1 (stereo not drawn) | 0.149
Cc1c(C(=O)NC2CCCc3ccccc32)oc2ccccc12 (stereo not drawn) | 5.99
COc1ccc(C)cc1NC(=O)N1CCC(CO)(CC2CCCCO2)CC1 (stereo not drawn) | 11.4
CCC(O)c1cc2c(cc1NC(=O)c1ccc(C)cc1)OCCO2 (stereo not drawn) | 8.34
CCN1CNC(=S)N(CCc2ccccc2)C1 | 16.4
CCOC(=O)/N=C(/NC(=O)Nc1ccc(C(=O)OCC)cc1)OC | 4.19
Cc1ccc(S(=O)(=O)N(C)C)cc1NC(=O)COC(=O)c1c(-c2ccccc2)noc1C | -24.8
C=CCn1c(SCC(=O)Nc2ccc(NC(=O)c3ccco3)c(OC)c2)nnc1-c1ccncc1 | -6.37
Cc1cc([N+](=O)[O-])ccc1NC(=O)C(C)NC1CCCCC1 (stereo not drawn) | -10.6
Cc1c(NC(=O)/C(=C/c2cccs2)c2cccs2)c(=O)n(-c2ccccc2)n1C | -14.5
O=C(NCc1n[nH]c(=S)n1-c1ccccc1)c1cccs1 | 15.3
CCOc1ccc(N2CC(C(=O)NCCN3C(=O)S/C(=C\c4ccc(OC)cc4)C3=O)CC2=O)cc1 (stereo not drawn) | -6.7
O=C(Cc1ccc([N+](=O)[O-])cc1)NCc1cccnc1 | 6.09
Cc1ccsc1C(=O)N1CCCC(CO)(Cc2ccccc2F)C1 (stereo not drawn) | 8.6
CCN1C(=O)CSC1=Nc1ccccc1Cl | 13.6
Cc1nc(SCC2(C)CC2(Cl)Cl)n[nH]1 (stereo not drawn) | 16.4
COc1cc(CN2CCNC(=O)C2CC(=O)NCCCC2CCCC2)cc(OC)c1 (stereo not drawn) | -10.3
